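How tested: cells in 96-well plates exposed to compound for 48 hours at five concentrations. GI50 marks 50% less growth. TGI is the concentration that stops growth completely.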
These compounds were tested on NCI-H322M lung (assay: DTP human tumour cell line panel, 48 h).
`CC(C)(C)C(=O)c1c(C(F)(F)F)n([O-])c2cc(Cl)c(Cl)cc2[n+]1=O` gave a GI50 of 1.66 µM and a TGI of 3.05 µM.
With `C[C@]12CC(C=O)C(=O)C(O)=C1CC[C@@H]1C2CC[C@@]2(C)C1CC[C@]2(C)O` (stereo partly drawn) the TGI was 44.3 µM.
`COC1(OC)N=C(N)C2(C#N)C(C)=C3NCN(C)N=C3C12C#N` (stereo not drawn) was tested, and the TGI was greater than 100 µM.
For `COc1cc([C@@H]2OC(=O)C3C2C(=O)O[C@H]3c2ccc(O)c(OC)c2)ccc1O` (stereo partly drawn), the TGI was greater than 100 µM.
For `COc1ccc(/C=N/N=C(\N)NO)cc1F`, the TGI was greater than 100 µM.
Work on `[Cl][Hg][c]1ccc2ccccc2c1` yielded a GI50 of 6.06 µM and a TGI of 14.2 µM.
Compound `CC(NP(=O)(c1ccccc1)c1ccccc1)c1ccccc1` (stereo not drawn) has a TGI greater than 100 µM.
`C[C@]12Cc3conc3C(O)=C1CC[C@@H]1C2CC[C@@]2(C)C1CC[C@]2(C)O` (stereo partly drawn) showed a TGI greater than 100 µM.
`Cc1ccc(C2[C@H]3C(=O)N(c4ccc(Cc5ccc(N6C(=O)[C@@H]7ON(c8ccccc8)C(c8ccc(C)cc8)[C@@H]7C6=O)cc5)cc4)C(=O)[C@H]3ON2c2ccccc2)cc1` (stereo partly drawn) showed a TGI greater than 100 µM.
`Cc1cc2c(nn1)CCc1c-2no[n+]1[O-]` showed a TGI greater than 100 µM.
With `CCCCCCCCCCCCCCCCCCOCC(C[N+]1(C)CCC(O)CC1)OCC` (stereo not drawn) the TGI was 23.4 µM.
`CCCCCN(CCCCC)C(=O)[C@H](CCC(=O)O)NC(=O)c1cc2ccccc2[nH]1` showed a TGI greater than 100 µM.
With `NNC(=O)c1cc([N+](=O)[O-])ccc1NC(=O)C12CC3CC(CC(C3)C1)C2` the TGI was 46.4 µM.
With `O=C(N=Nc1c(Cl)c(O)c2ccccc2c1O)C(=O)Nc1cccc(C(F)(F)F)c1` the GI50 was 2.87 µM and the TGI was 9.74 µM.
`Cc1c(NC(=O)Nc2c(Cl)cccc2Cl)c(=O)n(-c2ccccc2)n1C` showed a TGI greater than 100 µM.

From PubChem BioAssay (NCI)
